These results are taken from paper PMC5827659 (2018).

Series [1] concerns the molecule itself. The experiment in a line: AUC; monomer-dimer.
Series [2] concerns the molecule itself. The experiment in a line: AUC; dimer-tetramer.

B1: OASFext R304W (STIM1 […] R304W) (domain or fragment)
chain: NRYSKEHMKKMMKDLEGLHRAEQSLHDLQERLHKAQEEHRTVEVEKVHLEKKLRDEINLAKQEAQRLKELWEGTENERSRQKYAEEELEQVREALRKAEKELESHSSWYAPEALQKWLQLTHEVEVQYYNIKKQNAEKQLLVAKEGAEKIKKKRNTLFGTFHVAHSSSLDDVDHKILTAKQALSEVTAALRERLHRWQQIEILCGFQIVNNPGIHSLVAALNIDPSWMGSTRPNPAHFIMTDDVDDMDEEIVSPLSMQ
For orientation: Kd means a measure of binding affinity in units of concentration. Read a high Kd as weaker binding. B1: in series [1], binding was characterised by a dissociation constant (Kd) of 550 nM.

B2: OASFext L251S (STIM1 […] L251S) (domain or fragment)
chain: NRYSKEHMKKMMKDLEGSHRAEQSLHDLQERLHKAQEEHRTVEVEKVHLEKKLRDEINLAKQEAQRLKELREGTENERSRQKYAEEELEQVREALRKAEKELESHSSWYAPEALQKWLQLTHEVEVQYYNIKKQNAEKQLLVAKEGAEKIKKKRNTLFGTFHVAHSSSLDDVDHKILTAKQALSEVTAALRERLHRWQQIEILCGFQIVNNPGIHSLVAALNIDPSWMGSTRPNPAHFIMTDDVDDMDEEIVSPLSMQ
With B2, the Kd turned out to be 181000 nM in series [2] and 570 nM in series [1].

B3: OASFext (extended OASF fragment, STIM1 […]) wild type (domain or fragment)
chain: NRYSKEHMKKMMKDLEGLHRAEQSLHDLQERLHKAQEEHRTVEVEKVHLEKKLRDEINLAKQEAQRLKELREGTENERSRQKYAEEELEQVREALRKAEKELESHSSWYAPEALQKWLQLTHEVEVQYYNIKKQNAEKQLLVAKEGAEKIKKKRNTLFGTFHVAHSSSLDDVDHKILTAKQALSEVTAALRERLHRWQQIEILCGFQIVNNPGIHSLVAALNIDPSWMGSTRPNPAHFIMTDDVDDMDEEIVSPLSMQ
The protein B3 yielded a Kd in series [1] of 850 nM.
